Assay results as given in the supplement of paper PMC8728848.
This excerpt belongs to a sample that is enriched for the strongest signals.

Key:
Test in all cases: glycan array binding signal (z-score within array); higher = stronger binding
Details in all cases: glycan notation: IUPAC condensed, linker removed
[1] = target: Fuc(a1-2)Gal(b1-4)[Fuc(a1-3)]GlcNAc
Method in brief: (§1)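 Glycan array binding is given as a within-array Z-score, which can be read as non-binding when negative. The arrays, 3228 of them, came from the Consortium for Functional Glycomics database and were retained only where the protein sequence was available. Z-scores were averaged across arrays of the same protein sequence at different concentrations or buffers and across linkers.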

[2] = target: Fuc(a1-2)[GalNAc(a1-3)]Gal(b1-4)GlcNAc
Method in brief: as §1

[3] = target: Fuc(a1-2)[GalNAc(a1-3)]Gal(b1-4)[Fuc(a1-3)]GlcNAc
Method in brief: as §1

[4] = target: Fuc(a1-3)[Gal3S(b1-4)]Glc6S
Method in brief: as §1

[5] = target: Fuc(b1-3)GlcNAc
Method in brief: as §1

[6] = target: Gal(b1-3)GlcNAc(b1-3)Gal(b1-4)GlcNAc
Method in brief: as §1

[7] = target: Gal(b1-3)[Fuc(a1-4)]GlcNAc(b1-3)Gal(b1-4)GlcNAc
Method in brief: as §1

[8] = target: Gal(b1-3)[Neu5Ac(a2-6)]GlcNAc(b1-6)Gal(b1-4)Glc
Method in brief: as §1

[9] = target: Gal3S(b1-4)Glc
Method in brief: as §1

[10] = target: Glc(b1-4)Glc
Method in brief: as §1

[11] = target: GlcA(b1-3)Gal
Method in brief: as §1

[12] = target: GlcNAc(b1-3)Gal(b1-4)GlcNAc(b1-3)Gal(b1-4)GlcNAc
Method in brief: as §1

[13] = target: GlcNAc(b1-3)[GlcNAc(b1-4)][GlcNAc(b1-6)]GlcNAc
Method in brief: as §1

[14] = target: GlcNAc(b1-4)GlcNAc(b1-4)GlcNAc(b1-4)GlcNAc(b1-4)GlcNAc
Method in brief: as §1

[15] = target: Neu5Ac(a2-3)Gal(b1-3)GalNAc(b1-3)Gal(b1-4)GlcNAc
Method in brief: as §1

[16] = target: Neu5Ac(a2-3)Gal(b1-3)GalNAc(b1-4)[Neu5Ac(a2-3)]Gal(b1-4)Glc
Method in brief: as §1

[17] = target: Neu5Ac(a2-3)Gal(b1-3)GlcNAc
Method in brief: as §1

[18] = target: Neu5Ac(a2-3)Gal(b1-4)GlcNAc(b1-3)Gal(b1-4)GlcNAc(b1-3)Gal(b1-4)GlcNAc
Method in brief: as §1

[19] = target: Neu5Ac(a2-3)Gal(b1-4)GlcNAc(b1-6)[Neu5Ac(a2-3)Gal(b1-3)]GalNAc
Method in brief: as §1

[20] = target: Neu5Ac(a2-3)Gal(b1-4)[Fuc(a1-3)]GlcNAc(b1-3)Gal(b1-4)[Fuc(a1-3)]GlcNAc(b1-3)Gal(b1-4)[Fuc(a1-3)]GlcNAc
Method in brief: as §1

[21] = target: Neu5Ac(a2-3)GalNAc
Method in brief: as §1

[22] = target: Neu5Ac(a2-3)GalNAc(b1-4)GlcNAc
Method in brief: as §1

[23] = target: Neu5Ac(a2-6)Gal
Method in brief: as §1

[24] = target: Fuc(a1-2)[GalNAc(a1-3)]Gal
Method in brief: as §1

[25] = target: Fuc(a1-2)[GalNAc(a1-4)]Gal(b1-4)GlcNAc
Method in brief: as §1

[26] = target: Fuc(a1-3)[Neu5Ac(a2-3)]Gal(b1-4)GlcNAc(b1-3)GalNAc
Method in brief: as §1

[27] = target: Gal(a1-3)Gal(b1-4)GlcNAc
Method in brief: as §1

[28] = target: Gal(a1-4)Gal(b1-4)Glc
Method in brief: as §1

[29] = target: Gal(b1-3)Gal(b1-4)GlcNAc
Method in brief: as §1

[30] = target: Gal(b1-3)GalNAc(b1-4)[Neu5Ac(a2-3)]Gal(b1-4)Glc
Method in brief: as §1

[31] = target: Gal(b1-4)GlcNAc(b1-2)Man(a1-3)[Gal(b1-4)GlcNAc(b1-2)Man(a1-6)]Man(b1-4)GlcNAc(b1-4)GlcNAc
Method in brief: as §1

[32] = target: Gal(b1-4)GlcNAc(b1-3)[Gal(b1-4)GlcNAc(b1-6)]Gal(b1-4)GlcNAc
Method in brief: as §1

[33] = target: Gal3S6S(b1-4)GlcNAc6S
Method in brief: as §1

[34] = target: Gal6S(b1-4)GlcNAc
Method in brief: as §1

[35] = target: GalNAc(b1-3)Gal(a1-4)Gal(b1-4)GlcNAc
Method in brief: as §1

[36] = target: Glc(a1-4)Glc
Method in brief: as §1

[37] = target: GlcNAc(b1-3)Gal(b1-3)GalNAc
Method in brief: as §1

[38] = target: GlcNAc(b1-6)Gal(b1-4)GlcNAc
Method in brief: as §1

[39] = target: Man(a1-2)Man(a1-3)[Man(a1-2)Man(a1-6)]Man
Method in brief: as §1

[40] = target: Man(a1-2)Man(a1-3)[Man(a1-2)Man(a1-6)]Man(a1-6)[Man(a1-2)Man(a1-2)Man(a1-3)]Man
Method in brief: as §1

[41] = target: Man(a1-3)[Man(a1-6)]Man(a1-6)[Man(a1-3)]Man
Method in brief: as §1

[42] = target: Neu5Ac(a2-3)Gal(b1-3)[Neu5Ac(a2-3)Gal(b1-4)]GlcNAc
Method in brief: as §1

[43] = target: Neu5Ac(a2-3)Gal(b1-4)Glc
Method in brief: as §1

[44] = target: Neu5Ac(a2-3)Gal(b1-4)GlcNAc(b1-3)Gal(b1-4)GlcNAc
Method in brief: as §1

[45] = target: Neu5Ac(a2-3)Gal6S(b1-4)[Fuc(a1-3)]GlcNAc
Method in brief: as §1

[46] = target: Neu5Ac(a2-8)Neu5Ac
Method in brief: as §1

[47] = target: Neu5Ac(a2-8)Neu5Ac(a2-8)Neu5Ac(a2-3)Gal(b1-4)Glc
Method in brief: as §1

[48] = target: Neu5Gc(a2-3)Gal(b1-4)Glc
Method in brief: as §1

[49] = target: Neu5Gc(a2-3)Gal(b1-4)[Fuc(a1-3)]GlcNAc
Method in brief: as §1

B1: CD44 (Homo sapiens) (protein)
chain: [in this place about 200 residues]ATRDQDTFHPSGGSHTTHGSESDGHSGSQEGGANTTSGPIRTPQIPACEEPKSCDKTHTCPPCPAPEFEGAPSVFLFPPKPKDTLMISRTPEVTCVVVDVSHEDPEVKFNWYVDGVEVHNAKPREEQYNSTYRVVSLVTVLHQDWLNGKEYKCKVSNKALPAPIEKTISKAKGQPREPQVYTLPPSRDELTKNQVSLTCLVKGFYPSDIAVEWESNGQPENNYKTTPPVLDSDGSFFLYSKLTVDKSRWQQGNVFSCSVMHEALHNHYTQRSLSLSPGK
[1]
  glycan array binding signal (z-score): -0.524
[2]
  glycan array binding signal (z-score): -0.298
[3]
  glycan array binding signal (z-score): -0.28
[4]
  glycan array binding signal (z-score): -0.366
[5]
  glycan array binding signal (z-score): 0.007
[6]
  glycan array binding signal (z-score): 0.918
[7]
  glycan array binding signal (z-score): -0.281
[8]
  glycan array binding signal (z-score): 0.129
[9]
  glycan array binding signal (z-score): 0.127
[10]
  glycan array binding signal (z-score): 3.9
[11]
  glycan array binding signal (z-score): 0.452
[12]
  glycan array binding signal (z-score): -0.604
[13]
  glycan array binding signal (z-score): -0.896
[14]
  glycan array binding signal (z-score): -0.306
[15]
  glycan array binding signal (z-score): 0.707
[16]
  glycan array binding signal (z-score): 3.9
[17]
  glycan array binding signal (z-score): -0.344
[18]
  glycan array binding signal (z-score): -0.108
[19]
  glycan array binding signal (z-score): 5.39
[20]
  glycan array binding signal (z-score): 5.12
[21]
  glycan array binding signal (z-score): -0.5
[22]
  glycan array binding signal (z-score): 3.63
[23]
  glycan array binding signal (z-score): -0.611

B2: Langerin (Homo sapiens), CLC4K_HUMAN (protein)
chain: LDYPRFMGTISDVKTNVQLLKGRVDNISTLDSEIKKNSDGMEAAGVQIQMVNESLGYVRSQFLKLKTSVEKANAQIQILTRSWEEVSTLNAQIPELKSDLEKASALNTKIRALQGSLENMSKLLKRQNDILQVVSQGWKYFKGNFYYFSLIPKTWYSAEQFCVSRNSHLTSVTSESEQEFLYKTAGGLIYWIGLTKAGMEGDWSWVDDTPFNKVQSARFWIPGEPNNAGNNEHCGNIKAPSLQAWNDAPCDKTFLFICKRPYVPSEPV[in this place about 200 residues]
[1]
  glycan array binding signal (z-score): 2.07
[24]
  glycan array binding signal (z-score): 1.84
[25]
  glycan array binding signal (z-score): -0.094
[26]
  glycan array binding signal (z-score): 2.05
[27]
  glycan array binding signal (z-score): -0.045
[28]
  glycan array binding signal (z-score): -0.359
[29]
  glycan array binding signal (z-score): -0.473
[30]
  glycan array binding signal (z-score): -0.368
[31]
  glycan array binding signal (z-score): -0.39
[32]
  glycan array binding signal (z-score): -0.448
[33]
  glycan array binding signal (z-score): -0.223
[34]
  glycan array binding signal (z-score): 2.27
[35]
  glycan array binding signal (z-score): -0.349
[36]
  glycan array binding signal (z-score): 5.09
[37]
  glycan array binding signal (z-score): 2.11
[38]
  glycan array binding signal (z-score): 0.433
[39]
  glycan array binding signal (z-score): 0.856
[40]
  glycan array binding signal (z-score): 2.17
[41]
  glycan array binding signal (z-score): 0.304
[42]
  glycan array binding signal (z-score): -0.408
[43]
  glycan array binding signal (z-score): -0.344
[44]
  glycan array binding signal (z-score): -0.401
[19]
  glycan array binding signal (z-score): -0.39
[45]
  glycan array binding signal (z-score): 1.36
[46]
  glycan array binding signal (z-score): -0.315
[47]
  glycan array binding signal (z-score): -0.425
[48]
  glycan array binding signal (z-score): -0.393
[49]
  glycan array binding signal (z-score): -0.444
